In all, about 7,900 compounds went through this assay and about 400 (5.1%) showed an effect of 50% or more. The list shows a part of the results.
target: Parkinson's disease protein 7 (PARK7/DJ1) (human, UniProt Q99497); experiment: primary screen, percent inhibition; read as competition with a fluorescent probe by fluorescence polarization; higher = more effect of the substance; conditions: 100 µM
In short: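 Covalent fragments at 100 μM final were incubated 2 h with 0.2 μM PARK7, then 20 nM probe JYQ-107 added for a further 2 h. Fluorescence polarization read at 480/520 nm; relative FP loss versus reference controls gave remaining enzyme activity.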

Parkinson's disease protein 7 (PARK7/DJ1), sequence (Q99497 whole entry, looked up, the tested form may be a part): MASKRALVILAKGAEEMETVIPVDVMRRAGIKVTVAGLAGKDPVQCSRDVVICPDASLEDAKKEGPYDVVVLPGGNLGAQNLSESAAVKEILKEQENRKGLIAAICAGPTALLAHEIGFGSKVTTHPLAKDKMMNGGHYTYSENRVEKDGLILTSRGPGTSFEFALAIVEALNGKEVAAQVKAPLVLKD

Structure (SMILES) | Inhibition %
O=C(CCl)Nc1ccc(Oc2ccccc2Cl)cc1 | 93.7%
Fc1cccc(CN2CCCC(C3OCCO3)C2)c1F (stereo not drawn) | 20.9%
C=CC(=O)N(C)CC(C)(C)CN1CCOCC1 | 12.8%
Cc1nn(-c2ccccc2)c(C)c1NC(=O)CCl | 6.29%
C=CC(=O)N1CCN2CCOCC2C1 (stereo not drawn) | 8.35%
CC(CC(O)c1ccccc1)NC(=O)c1cccnc1S (stereo not drawn) | 5.61%
N#Cc1ccc(N2CCS(=O)CC2)cn1 | 2.19%
CNS(=O)(=O)C=Cc1ccccc1 | 4.44%
Cc1c(Cl)ccc(S(=O)(=O)n2ccnc2C)c1Cl | 7.13%
CC(C)(C)OC(=O)N1Cc2cccc(B3OC(C)(C)C(C)(C)O3)c2C1 | 2.85%
C=CC(=O)NC(c1ccc(C)cc1)c1ccccn1 (stereo not drawn) | 4.1%
C=CC(=O)Nc1ccnc2cccnc12 | 8.73%
O=S(=O)(F)CCN1CCCn2ncc(C3CC3)c21 | 28.8%
C=CC(=O)N1CCOc2cccc(F)c2C1 | -0.151%
O=C1NC(=O)C(CCS)N1 (stereo not drawn) | 26.8%
C=CC(=O)NC1C2CCOC2C12CCCC2 (stereo not drawn) | 5.2%
CC1OCCC12CN(C(=O)c1cccc(B(O)O)c1)CCO2 (stereo not drawn) | 3.19%
Cc1ccc(Cl)cc1Oc1nccnc1C#N | 5.48%
C=CC(=O)N1CCN(C(C)c2nccs2)CC1 (stereo not drawn) | 11.2%
O=C(CCl)Nc1cc(-n2cnnn2)ccc1Cl | 6.29%
C=CC(=O)N(CCc1nccs1)C(C)C | 15%
CC(C)Oc1ccc2[nH]cc(C(=O)CCl)c2c1 | 12.4%
C=CC(=O)NCCC1=CCCCCC1 | 2.8%
N#Cc1cc(OCC(F)F)ccn1 | 22.9%
C=CC(=O)N1CCN(c2ccc(C)o2)C(=O)C1 | 5.39%
COCC1CC2OC2C1 (stereo not drawn) | 4.9%

Structure (SMILES) | Inhibition %
CC1(C)OB(c2cccs2)OC1(C)C | 1.39%
C=CC(=O)N(C)C[C@@H]1C[C@H](F)CN1c1ccncn1 | 8.19%
Cc1ccc(S(=O)(=O)OCC2CCC(=O)N2)cc1 (stereo not drawn) | 4.34%
C=CC(=O)Nc1c(C)nn(CC)c1C | 2.74%
O=C1OCCC1Sc1n[nH]c(-c2cc(F)cc(F)c2)n1 (stereo not drawn) | 16.8%
C=CC(=O)N(C)CC(=O)N1c2ccccc2NC(=O)CC1C (stereo not drawn) | 1.23%
COC(=O)c1c(NC(=O)CCl)sc2c1CCC2 | 6.77%
CCN(Cc1ccc(Cl)s1)C(=O)CCl | 9.61%
C=CC(=O)N1CCCCC(C2CCOC2)C1 (stereo not drawn) | 8.08%
CCOc1cc(S(=O)(=O)n2cnc(C)c2)ccc1Cl | 7.03%
C=CC(=O)N1CCCN(Cc2nccn2C)CC1 | 10.6%
O=C1SCCN1CN1CCN(c2ccccc2F)CC1 | 3.81%
C=CC(=O)N1CCc2ccn(C)c2C1 | 13.1%
N#Cc1ncn(CCC(=O)Nc2ccccc2)n1 | 0.146%
N#Cc1cnc(Oc2ccc(F)c(C(F)(F)F)c2)cn1 | 7.97%
C=CC(=O)NC1CCc2cn(C(C)C)nc2C1 (stereo not drawn) | 11.9%
N#Cc1cnc(SCC(=O)Nc2ccccc2)cn1 | 23.1%
C=CCOc1ccc(Cl)c(C#N)n1 | 4.33%
Cl.ClCCCc1ccccn1 | 3.8%
O=C(CCl)N1CCCc2ccccc21 | 69.2%
O=C(CCl)NC1CCC2(CC1)OCCO2 | 15.9%
O=C(CCl)c1ccc(N2CCOC2=O)cc1 | 24.5%
C=CC(=O)N1CCN(C(C)=O)CC1 | 4.07%
COc1ccc(C2(C)NC(=O)N(NC(=O)CCl)C2=O)cc1 (stereo not drawn) | 1.98%
C=CC(=O)N[C@H]1C[C@H](C)S(=O)(=O)c2sccc21 | 7.51%
O=C(CN1CCSC1=O)Nc1cc(Cl)ccc1F | 6.77%

Structure (SMILES) | Inhibition %
O=C(NCC1CCCS1(=O)=O)c1cccnc1S (stereo not drawn) | 1.97%
CCN(CC)C(=O)Oc1cccc2cccnc12.Cl | 6.29%
C=CC(=O)NCc1cn2c(n1)CCCC2 | 7.61%
C=CC(=O)N1CCC(COC)CC1 | 25.8%
Cc1ccc(-c2nnc(C)[nH]2)c(NC(=O)CCl)c1 | 24.2%
Cc1cccc(Cl)c1B1OC(C)(C)C(C)(C)O1 | 12.2%
CNC1CCCN(C(=O)C=Cc2ccnn2C)C1.Cl (stereo not drawn) | 6.67%
C=CC(=O)N1CCCC1c1nccc(C(F)(F)F)n1 (stereo not drawn) | 8.62%
O=C(CCl)N1c2ccccc2Sc2ccc(Cl)cc21 | 6.3%
O=C(Nc1ccc2c(c1)COC2)c1cccnc1S | 2.52%
O=c1c2ccccc2nc(S)n1C1CC1 | 4.16%
C=CC(=O)N1CCN(C(=O)COC)CC1 | -2.75%
C=CC(=O)NC1CCOC(C(C)(C)C)C1 (stereo not drawn) | -3.67%
O=C(CC1OCCCO1)N1CCCN(C2CCCC2)CC1 | 15%
C=CC(=O)N1CCOc2ncccc2C1 | 9.48%
C=CC(=O)N1CC(C)(CC(F)(F)F)C1 | 7.14%
C=CC(=O)N1CCN(S(=O)(=O)CC)CC1 | 11.7%
CC1(C)CCC(OS(C)(=O)=O)CC1 | 16.9%
CCCc1nc(C#N)co1 | 4.99%
N#Cc1cnc2ccccn12 | 21.5%
O=C(Cn1c(-c2ccccn2)noc1=O)N1CCCCC1 | 8.8%
CC1CN(C(=O)CN2CCSC2=O)C(C)CO1 (stereo not drawn) | 4.59%
CC(C)C(NS(=O)(=O)C=Cc1ccccc1)C(=O)O (stereo not drawn) | 2.61%
Cn1cccc1C(=O)NS(=O)(=O)C=Cc1ccc(F)cc1 | 8.72%
O=C(c1cc(Cl)ccc1O)N1CCCC(C2OCCO2)C1 (stereo not drawn) | 8.28%
CN(CCc1nccs1)C(=O)c1cccnc1S | 5.89%

Structure (SMILES) | Inhibition %
CCN(C(=O)c1ccc(B(O)O)cc1)C1CCOC(C)(C)C1 (stereo not drawn) | 8.49%
N#Cc1nccnc1N | 4.54%
N#CC(=Cc1ccncc1)C(=O)Nc1cccc(Cl)c1 | 10.5%
C=CC(=O)NC1C2C3CC4C5CC(C42)C1C53 (stereo not drawn) | 11%
C=CC(=O)NCc1ccc2c(c1)OCO2 | 11.2%
C=CC(=O)NCc1csc2ccccc12 | 7.7%
CC1(CO)CCCC1Nc1ccc(C#N)nc1 (stereo not drawn) | 6.61%
CC1CC(N(C)CC2CCCCC2)C(=O)O1 (stereo not drawn) | 4.89%
O=C(CCl)Nc1ccc([N+](=O)[O-])cc1C(F)(F)F | 12.1%
C=CC(=O)N1CCc2cccc(OC)c2CC1 | 7.14%
COc1ccccc1CN(C)C(=O)CCl | 98.6%
N#Cc1cc(N2C[C@@H](F)C[C@H]2CO)ccn1 | 37.7%
N#Cc1nccnc1N1CCC(Cc2ccccc2)C1 (stereo not drawn) | 5.93%
Cn1cc(C=C2N=C(c3ccccc3F)OC2=O)cn1 | -1.81%
OB(O)c1ccc(OCC2CC2)cc1 | 0.734%
O=C(CN1CCSC1=O)Nc1cnccc1O | 0.99%
N#Cc1cc(CO)ccn1 | 8.51%
COC(C)(C)CNC(=O)c1cccnc1S | 20.8%
C=CC(=O)N1CCOCC1c1cccn1C (stereo not drawn) | 7.42%
CCN1CCC(NC(=O)CCl)CC1.Cl | 7.55%
N#CN(CC(=O)NCc1ccco1)c1ccc(F)cc1 | 2.46%
N#Cc1nc(-c2ccccc2)no1 | 3.03%
C=CC(=O)Nc1ccc(F)c(C2CC2)c1 | 3.08%
CC1CN(C(=O)c2ccc(Cl)c(C#N)n2)C(C)CN1C (stereo not drawn) | 2.96%
CN(Cc1cccc(Cl)c1)c1nccnc1C#N | 7.07%
Cc1ccc(NC(=O)Cn2cnc(C#N)n2)cc1 | 16.2%

Structure (SMILES) | Inhibition %
Cn1ncc(C(=O)O)c1C#N | 13.7%
C=CC(=O)NC(NC(=O)C=C)c1ccccc1F | 14.4%
N#CC=Cc1ccc(Cl)cc1 | 10.4%
C=CC(=O)N1CCCc2ccccc2CC1 | 10.2%
O=C(O)c1cccc(CS)c1 | 30.4%
C=CC(=O)N1CCC(n2cccc2)CC1 | 6.94%
C=CC(=O)N1CCOC(c2ccc(C(F)(F)F)cc2)C1 (stereo not drawn) | 1.86%
CCOC(=O)c1cnn2ccc(C#N)nc12 | 14.6%
COc1ccc(NS(=O)(=O)C=Cc2ccccc2)cn1 | 59.9%
O=C(CCl)N1CCC(C(=O)N2CCCCCC2)CC1 | 15.1%
CC(=O)Nc1ccc(SC2CCOC2=O)cc1 (stereo not drawn) | 12.7%
CN(C)CCOc1ccccc1B1OC(C)(C)C(C)(C)O1 | 6.97%
CCc1cnccc1C(=O)N1CCCC(C2OCCO2)C1 (stereo not drawn) | 12.5%
C=CCn1c(S)nc2ccccc2c1=O | 5.07%
C=CC(=O)N1CCCC(c2nc(CC)cs2)C1 (stereo not drawn) | 13.4%
N#Cc1ccccc1NC(=O)CCCl | -0.986%
O=C(CCl)Nc1cccc(C(=O)O)c1 | 13.2%
O=C(N1CCC1c1ccccc1)n1ccnc1 (stereo not drawn) | 11.7%
O=C(N[C@H]1CC[C@@H](CS(=O)(=O)F)C1)c1cccs1 (racemic) | 96.8%
CCOc1ccc(S(=O)(=O)n2ccc(C)n2)c(C)c1C | 5.4%
O=C1CCC(=O)N1CCSc1ccc2ccccc2n1 | -0.573%
C=CC(=O)N1CCCC1(C)Cc1cccs1 (stereo not drawn) | 2.19%

Reference: paper PMC9574860, “Chemical Toolkit for PARK7: Potent, Selective, and High-Throughput” (Journal of Medicinal Chemistry, 2022)
